# According to PubChem BioAssay AID624202 (National Center for Advancing Translational Sciences (NCATS), 2012):
# About 4,000 (1.1%) of roughly 380,000 compounds were called active. Inconclusive means that the source gave no clear call. Such entries were picked first, then a sample of the others. The call rests on the fitted dose curve; in most records, active means well fitted activation curve with a large enough effect; inconclusive means small, poorly fitted or top-dose-only effect; inactive means no such curve, though single readings can be large or run the other way. Where the call is inconclusive, the potency comes from a doubtful curve fit.
# Test: qHTS Assay to Identify Small Molecule Activators of BRCA1 Expression; further: nearly all actives have a fitted effect of over 80% in size
# Details: MCF7-BRCA1-FFLuc reporter, luminescence, 48 h; activation: at 46.1 µM (top of the series), scaled: vehicle 0%, 10 µM genistein 100% unless noted
# Summary of the method: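 Using MCF7 cells harboring a BRCA1 firefly luciferase reporter, plated 2 h before compound pinning, the screen measured luminescence after 48 h incubation. Responses were normalized to DMSO and 10 microM genistein, then fitted for concentration-effect.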
# Potency means the concentration at half of the fitted maximal effect; tags describe the fitted curve by direction and shape.
Compound,Potency,activation
Cc1ccc(C2NNC(=O)C2NC(=O)c2ccccc2)cc1 (centres undefined),active: 11.2 µM,
CCc1ccccc1NC(=S)N(CCN1CCOCC1)C1CCN(C(C)=O)CC1,,inactive: -7.77%
O=c1cc(NCc2ccccc2)c2ccccc2o1,,inactive: -2.94%
CCOC(=O)c1sc(Nc2ccccc2Cl)nc1C,active: 8.91 µM,
CSc1ncccc1C(=O)Nc1ccc2c(c1)OCCO2,,inactive: 24.3%
CC1(C)CC(=O)C=C(c2ccc(Oc3ccccc3)cc2)C1,"inconclusive: 14.1 µM [activator, single point]",
O=C(NC(=S)Nc1nc2ccccc2s1)c1ccco1,,inactive: 33.2%
CC(C)c1ccc(/C=N/N2CCN(c3ccccn3)CC2)cc1,"inconclusive: 15.8 µM [activator, partial curve, poor fit]",
Cc1ccc(C)c(Nc2cc(C)nc(-c3ccccc3O)n2)c1,,inactive: -56.7%
Cc1cccc(NC(=O)c2ccc(OC3CSC3)cc2)c1,active: 11.2 µM,
Cc1cc(/C=N/NC(=O)c2ccoc2C)cc(C)c1O,active: 7.94 µM,
CC(=O)Nc1ccc(/C=C/C(=O)c2ccc3c(c2)OCCO3)cc1,,inactive: 31.4%
Cc1c(Cl)cccc1Nc1nc(N)nc(CSc2ncccn2)n1,active: 10 µM,
CC(=O)N(C1=C(Cl)C(=O)c2ccccc2C1=O)C1CCCCC1,,inactive: -90.7%
Cc1ccc(C)c(S(=O)(=O)N2CCN(C(=O)C3CC3C)CC2)c1 (centres undefined),,inactive: -16.4%
Cc1ccc2c(=O)[nH]c(Cc3ccccc3C(=O)O)nc2c1,,inactive: -3.32%
Cc1occc1-c1nnc(SCC(=O)c2ccc(Cl)cc2)n1C,,inactive: -4.15%
CSCC[C@H](NC(=O)[C@@H]1CSC2c3ccccc3C(=O)N21)C(=O)NCc1ccco1 (some centres undefined),,inactive: -16.2%
COC(=O)CCNC(=O)c1ccc2nc(Cc3ccc(OC)c(OC)c3)oc2c1,"inconclusive: 31.6 µM [activator, single point]",
CCn1ccnc1CN(C)Cc1cn(-c2cc(C)ccc2C)nc1-c1ccccc1,,inactive: -62.8%
CC(=O)Nc1ccccc1C(=O)C(=O)Nc1ccc(F)c(Cl)c1,"inconclusive: 17.8 µM [activator, single point]",

Compound,Potency,activation
CNC(=O)c1ccc(-c2ccc(F)cc2)s1,"inconclusive: 12.6 µM [activator, partial curve, poor fit]",
O=C(COc1ccc(Cl)cc1Cl)N/N=C/c1ccc[nH]1,,inactive: 10.1%
CCOC(=O)C1=CC[C@@H](c2ccccc2C(F)(F)F)N(S(=O)(=O)c2ccc(C)cc2)[C@H]1c1ccc(C#N)cc1,,inactive: 15.1%
O=C(NC(=S)Nc1ncccn1)c1ccc(F)cc1,"inconclusive: 20 µM [activator, partial curve, poor fit]",
Cc1cccc(C(=O)Nc2sc3c(c2C(=O)O)CCCC3)c1,"inconclusive: 3.55 µM [activator, full curve, poor fit]",
CCCc1ccc2oc(C(=O)N3CCC(O)CC3)c(C)c2c1,"inconclusive: 15.8 µM [activator, partial curve, poor fit]",
O=C(Nc1ccc(Cl)cn1)c1ccc2c(Cl)c3c(nc2c1)CCC3,"inconclusive: 12.6 µM [activator, partial curve, poor fit]",
CCCn1c(N)cc(=O)n(CCC)c1=O,,inactive: -1.62%
COC(=O)c1sc(NC(=O)COc2cccnc2[N+](=O)[O-])c(C(=O)OC)c1C,,inactive: -10.1%
CC(C)(C)n1cnc2cc(NC(=O)c3ccccc3)ccc21,"inconclusive: 1.58 µM [activator, partial curve, poor fit]",
Cn1c(SCc2cccc(F)c2)nnc1-c1ccccn1,"inconclusive: 7.94 µM [activator, partial curve, poor fit]",
CC1=CN2C(=N)/C(=C/c3ccc(C)o3)C(=O)N=C2S1,,inconclusive: 3.97% [activator]
CCCn1nnc(NC(=O)c2ccccc2Cl)n1,active: 11.2 µM,
Nc1ccccc1NC(=O)NC(=O)c1ccccc1,"inconclusive: 2.51 µM [activator, partial curve, poor fit]",
CCn1c(N2CCC(Cc3ccccc3)CC2)nc2c1c(=O)[nH]c(=O)n2C,,inactive: -45.7%
CCN(CC)c1ccc(/C=N/Nc2nn[nH]n2)cc1,,inactive: -7.9%
Cc1ccc(CCNC(=O)C2CCN(S(=O)(=O)c3cccc4cccnc34)CC2)cc1,,inactive: -2.24%
CCCc1ccc2oc(C(=O)N(C)Cc3ccn[nH]3)c(C)c2c1,"inconclusive: 11.2 µM [activator, partial curve, poor fit]",
c1ccc(CSc2nc3ncccn3n2)cc1,active: 2.51 µM,
COCCNc1oc(-c2ccc(C)cc2)nc1C#N,"inconclusive: 8.91 µM [activator, partial curve, poor fit]",
CC1CCc2c(sc(NC(=O)C3CCCO3)c2C#N)C1 (centres undefined),active: 10 µM,

Compound,Potency,activation
Cc1nc(-c2ccc(Cl)cc2)sc1C(=O)O,"inconclusive: 2.24 µM [activator, full curve, poor fit]",
Cc1occc1C(=O)N/N=C/c1ccc[nH]1,"inconclusive: 25.1 µM [activator, single point]",
Cc1ccc(OCc2cc(C(=O)N(C)CCc3ccccn3)no2)cc1C,active: 8.91 µM,
O=C(C[n+]1cc(Br)cc(Br)c1)c1ccc2ccccc2c1,,inactive: 11.2%
CCNC(=O)CSc1nc(-c2ccccc2)cs1,"inconclusive: 20 µM [activator, partial curve, poor fit]",
COc1ccc(NC(=O)c2cc(C3CCCCN3S(=O)(=O)c3cccs3)on2)c(C)c1 (centres undefined),,inactive: -17.7%
COc1ccc(C(=O)CCN2CCCCCC2)cc1,,inactive: -48.1%
Cn1nccc1C(=O)N/N=C/c1ccccc1[N+](=O)[O-],"inconclusive: 17.8 µM [activator, single point]",
COc1cc(-c2noc(-c3ccc(N4CCOCC4)c([N+](=O)[O-])c3)n2)cc(OC)c1OC,,inactive: 6.03%
O=C(Cc1ccc(Cl)cc1)c1ccc(O)cc1,"inconclusive: 12.6 µM [activator, partial curve, poor fit]",
CN(C)C=NC(=O)c1cc(C(=O)c2ccc(Cl)cc2)c[nH]1,"inconclusive: 3.16 µM [activator, partial curve, poor fit]",
Cc1nc2ccccc2c(=O)n1/N=C/c1ccccc1O,"inconclusive: 35.5 µM [activator, single point]",
NNC(=O)c1ccc(COc2ccc3ccccc3c2)o1,"inconclusive: 1.58 µM [activator, partial curve, poor fit]",
Cc1oc2ncn(C)c(=O)c2c1C(=O)NCc1ccccc1,,inactive: -7.46%
C/C(=N\NC(=S)NCc1ccccc1)c1ccc(Cl)s1,,inactive: -24.8%
Cc1cccc(CN(CC(=O)N/N=C/c2cccs2)S(=O)(=O)c2ccc(Cl)cc2)c1,,inactive: -52.2%
O=C(COC(=O)c1ccc(O)cc1)c1ccc2c(c1)OCCO2,active: 10 µM,
COc1cccc(N2CCN(C(=O)Cn3ncc4c(=O)oc5ccccc5c43)CC2)c1,,inactive: -11.4%
CCCCSc1nnc(-c2ccc(C)cc2)o1,active: 1.78 µM,
COc1ccc(COc2ccc3ccc(=O)oc3c2)cc1,"inconclusive: 3.16 µM [activator, full curve, poor fit]",
O=C(Nc1ccc2oc(-c3ccccc3)nc2c1)c1ccccc1F,"inconclusive: 2 µM [activator, full curve, poor fit]",

Compound,Potency,activation
CNC(=S)NNC(=O)c1ccc(N(C)C)cc1,"inconclusive: 35.5 µM [activator, single point]",
CCCCCC(=O)Nc1ccc(C2C(=O)c3ccccc3C2=O)cc1,"inconclusive: 12.6 µM [activator, partial curve, poor fit]",
CC1CC(=O)N(CC(=O)Nc2ccc3c(c2)OCCO3)c2ccccc2S1 (centres undefined),,inactive: -21.3%
N/C(=N\NC(=O)Nc1ccc(Cl)cc1)c1ccccn1,"inconclusive: 22.4 µM [activator, single point]",
Cn1c(C(=O)NCc2ccccn2)cc2c(=O)n3ccccc3nc21,active: 5.01 µM,
CNC(=O)c1ccc(-c2nc(-c3ccccc3)cs2)cc1,active: 2.51 µM,
COc1ccc(N2CC(NC(=O)c3ccc4c(c3)OCO4)CC2=O)cc1OC (centres undefined),,inactive: -7.12%
Clc1ccc2nc(N3CCCCC3)[nH]c2c1,"inconclusive: 2.24 µM [activator, partial curve, poor fit]",
c1ccc(CNn2nnc3ccccc32)cc1,active: 5.01 µM,
O=C(NCc1ccc(F)cc1)C(c1ccccc1)c1ccccc1,,inactive: 0.533%
Cc1ccc(-c2cnn(-c3cccc(C(F)(F)F)c3)c2N)cc1,"inconclusive: 3.16 µM [activator, full curve, poor fit]",
CC1Cc2ccccc2N1C(=O)CSc1nc2ccccc2o1 (centres undefined),"inconclusive: 22.4 µM [activator, single point]",
COc1ccc(-c2nnc(SCC(=O)Nc3nc4ccccc4s3)n2C)cc1,,inactive: -4.17%
CCC(=O)Oc1ccc(-c2cnc3ccccc3n2)cc1,"inconclusive: 3.16 µM [activator, partial curve, poor fit]",
Cc1cc(C)c(NC(=O)Cn2c(=O)n(CCc3ccccc3)c(=O)c3ccccc32)c(C)c1,,inactive: 4.13%
O=C(NC(=S)Nn1cnnc1)c1ccccc1Br,,inactive: 1.64%
CCOc1ccc(CNc2ccc3c(c2)nc(C)n3C)cc1,active: 11.2 µM,
Cc1ccc(-c2csc(NC(=O)c3ccc(-c4ccccc4)cc3)n2)o1,,inactive: 0%
CC(=O)Nc1nnc(COc2ccc(Cl)cc2)s1,active: 4.47 µM,
C/C(=N\NC(=O)CSc1nc2ccccc2s1)c1ccco1,,inactive: -37.3%
CCOC(=O)/C=c1/s/c(=C/c2ccc3cc(OC)ccc3c2)c(=O)n1CC(=O)NCc1ccc2c(c1)OCO2,,inactive: 0.417%
